# According to the supplement of paper PMC12632987:
# The full ranking holds about 1,800 sequences; the median of “median log2 fold change of GCK-ALFA target abundance (FLAG IP / Myc IP barcode read proportion)” is about 0.14, and the lowest 2% start at about -0.84. The list shows a part of the results.
# B1: traf2_out_6_156_2399 (protein)
# chain: TVEEILAETLKKIEELIKKLAKASEEKKIKYINEIAGTVYRGLQRLREAGASVEEIEAFGEKVLKFTEEKLKEEGIDEDTKNLILASLSAVIRVAIEAAK
# B2: traf2_out_11_155_698 (protein)
# chain: EKERELNNELVDKMMEIEDEAKAELEAIAAEAAAAHPEHAARIAALLAESRRFSATTFGGRMAALFRELGLEEYAARVEALLEEAQKKKNEVYKEIEKKR
# B3: traf2_out_17_178_1693 (protein)
# chain: SKEALRAEISALTDRLIDHTDRYGTRLLERARAEGVLSPEELAALEAALASGSNRTFLATARELLPRSAASPETLALLAEFEAEYRRLAKEIAEAYKKYE
# B4: traf2_out_11_169_811 (protein)
# chain: EEKEKNRKINDFALELNDKAKEELLEHAKALAKEAGLDVEEVEAIFEKNKNKSLSAVAAALIDYFRSKGKEEAAEAVLKKYEELKDKINKEVTKKIKELE
# B5: traf2_out_13_95_1096 (protein)
# chain: SKELAEKIMEIADKMLDEVEKLLEELLKEAKKAGKLEEEVTEALNLARYRSINEAIHLLEELAKKHPEFKELYEKTIKEIKEIIKEAGKEVAKLIKEEKE
# B6: traf2_out_11_169_878 (protein)
# chain: EEAEFNRKVNDFALELNDEAKAELKEFALKLAKELGLDVAEVEAIFEKNKNSSLSAVAAALIEYFKSKGKEEAAKKILEKHEELKEEINKKFSEKLKELK
# B7: traf2_out_17_178_1684 (protein)
# chain: SKEEERKKISELTDQLIDLTEATGAELLARARAEGTITPEELAALEAARRAGSNRTFTALAERIVPKLASAAEAQALLDAFKARARELEKGIAEEYEKYE
# B8: traf2_out_6_156_2435 (protein)
# chain: MVEEIFEKTLKEIKELIKKLAEASEEKKIVYLNKIAGAVKRGLQELRDAGASLEEIKEFGERLLEEVKKLLEKSGLDESTKNLIIGSINAVIDVAIAEKA
# B9: traf2_out_1_27_1005 (protein)
# chain: STEEEEELLREANRKIGRATPEERIEIIEEAVREALERGLESPVHIAVVLILSLGEREERERAIEAVERVLREGGLSEEEIELMRRRVESGWARLDRLLA
# B10: traf2_out_11_169_779 (protein)
# chain: EEAEKNRKINDFALELNDKAKEKLKEEALKLAKEAGLDEEEIKKIFEENKNKSLSAVAAALIKYFESKGKEEEAAKVLEKYEELKDEINKKSSEFIKSLE
# B11: traf2_out_20_3_2120 (protein)
# chain: SELEEELEEELEEALKLLKKAAELSDPETAKRLEELIERLKASRELSPSDRLVVVSEVRREVLELAEEAARRGDEELAKILEEAADALNEAAGLLLKIAE
# B12: traf2_out_18_167_1891 (protein)
# chain: EEELRKELEEASDRLVELSDIRRAAREILEALERDPAEARALLAAALAAHPDSAVLKALAEVAATGDPAALRAALEAAIAALQKEANEAYKKMEELRKKL
# B13: traf2_out_11_104_648 (protein)
# chain: LSREQAREFNDFAMEQRDQALAIGKAVAAELKAAGETEQAAKLDAAINDPGTGISTIKNLLEELKPTLSPEMQKVADAAIAKLEALQKAVSQKLNELEAK
# B14: traf2_out_18_117_1769 (protein)
# chain: SARQEVIERLEALAEEVGAAASRLGKAVLENWDRLTPEERSAAMDVLADLSEVRREALLLIHEIREEGLPLEEAEKRAEELEKRAEEALAAADARLAAIA
# B15: traf2_out_1_27_1012 (protein)
# chain: SDEELTALIKEADRRIAEVDLERAKEIVKEAIRRAAELGEGDAVVLARTLVASELDEERAEAITEAALEAFRELGWPEEKIKELEEIFKSIIERTKKVLA
# B16: traf2_out_5_63_2341 (protein)
# chain: SEREELTALARRADRLVREMLEAAKAGDEEEVERLLEEAVADPELARLVLGILKAEERAYELSGDKEEEAKIAKELRERLEARLAARAAAEAAAAAAALA
# B17: traf2_out_18_167_1885 (protein)
# chain: SSELQKELEKASDELVRLSEIRRALKLALQALEKSREEALALIREKVKEFPDSEILKELLEVAETKSAEEVRAFMEEKIEELQKKANETYKKLEKLRKEL
# B18: traf2_out_13_95_1079 (protein)
# chain: SKEANEKIMEIANEMLEKTEEVLKELAKKVADNPEMKAAVEKALHLARTQGINAAIHLLEELAKANPEYKELLNAAIEKLKEIKREAGRKVAEILKEEEE
# B19: traf2_out_14_17_1296 (protein)
# chain: DILKKLEKIEKEAEELLKKYPELKLELGQLARKAESAKVLAEMYEEDPSYKPELIQALKNLEKLAKEVAEKAKPISKEAVKKLEKMAKEAKEIKKKVEAE
# B20: traf2_out_17_162_1629 (protein)
# chain: SPLEEREAELEKRLEEIEKKRKELEEKAKRIKELSKEELTDLLVEASEARREARELAEEIERLREEHDDPRLEELLKRAKELAEKFQRIANIFYKELEKK
# B21: traf2_out_13_95_1167 (protein)
# chain: EEEKTKKEREIASEAFDKREAIATDFAAKVKALIDDPAAAALMDEVVRNMNIYTLEHAAKQLQAAYPEKAAEIQALADEAIAKMKEIDKETTKKLNEIEK
# B22: traf2_out_1_27_984 (protein)
# chain: SDEEFQALLREADREMATLSLEEKLALAREVLRRAHEMGPEDLPLAAVHLAISTKTDEEFEALLEAIREELERLGVSPEEIERILKQMETAYNLTKKALA
# B23: traf2_out_11_169_824 (protein)
# chain: AEAERNRKINDKALELNDKAKEKLKEFALELAKKAGLDVEEVKAIFEKHKGASLSAIAAALIEYFRSKGKEEEAEAVLKKYEELKDEINKEMAKFLKELE
# B24: traf2_out_6_156_2433 (protein)
# chain: SKEEILKEAKEELSKLIKKLAAAPEEKKIKYISEIAGTFYRALQRLRDAGASLEEIKEAAEELIKHAEEEAKKAGLDEDTINLLLSSLNAVAIDALASAA
# B25: traf2_out_11_104_634 (protein)
# chain: LTREQARRLNDFAMAKRDEAAAVAAATAARLRELGETEAAARVEAALAHSGAGISTFRNLLEDLRPELSPEAAAVADAAIARLRALQAEVSAKLNELEAE
# B26: traf2_out_16_171_1433 (protein)
# chain: SAAAREAALRAEIAADAERLKERMETMVEMTPLISKETGLSVEQIAKGFRSTMTDRLEALRAHYRALAADLSPEVHAFIDERFAEVEEALEKAVAEILAK
# B27: traf2_out_11_155_679 (protein)
# chain: EKKKELNNELVDKTTEIADKAKAEGKAIADEAAAAHPEHAAEIRAVLEAAAPYSYRTFLGEAARTFERLGLEEAAARLKALLEKAQKEMNKIVKEIEAKL
# B28: traf2_out_18_3_1920 (protein)
# chain: KEEELKKISDEIDKVVDETTEKAKEWLEKAKKEIPEYKEEVEELEKLLESGAGPFGILDELAELWEKAGKEEEAAEIKKFKKEQRKKLQKLVDEYEKLIK
# B29: traf2_out_5_189_2328 (protein)
# chain: SEKEEEEKKLTEKAKKLAKKARELLAELEAKGASHEEIKAALLEELKKLSIEDARLYAGIMYAILLNRAWVKNDKALEAAAKEFRKEALALIEKREKEAA
# Target: T1, TRAF2, Q12933
# T1 chain: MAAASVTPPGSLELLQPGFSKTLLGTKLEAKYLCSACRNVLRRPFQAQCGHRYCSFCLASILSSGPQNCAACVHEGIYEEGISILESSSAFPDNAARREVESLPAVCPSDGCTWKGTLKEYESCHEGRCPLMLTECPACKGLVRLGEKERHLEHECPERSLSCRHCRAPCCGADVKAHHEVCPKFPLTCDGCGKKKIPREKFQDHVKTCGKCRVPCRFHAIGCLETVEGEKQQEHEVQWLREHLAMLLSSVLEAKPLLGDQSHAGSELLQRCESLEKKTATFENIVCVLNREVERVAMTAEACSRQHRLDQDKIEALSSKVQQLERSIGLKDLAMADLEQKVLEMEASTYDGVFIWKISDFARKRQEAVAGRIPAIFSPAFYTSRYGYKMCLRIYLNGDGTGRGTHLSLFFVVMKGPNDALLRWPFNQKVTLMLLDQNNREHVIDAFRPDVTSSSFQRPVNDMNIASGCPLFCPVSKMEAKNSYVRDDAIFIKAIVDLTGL
# Test: median log2 fold change of GCK-ALFA target abundance (FLAG IP / Myc IP barcode read proportion) (log2 ratio); each designed protein is fused to an ALFA-tag nanobody in HEK293 cells to bring the named protein to FLAG-tagged glucokinase (GCK); Myc marks an untargeted standard; higher = target protein stabilised (more abundant)
# Conditions: target protein: 3xFLAG-MCP-GCK-ALFA reporter; HEK293 landing pad (RPLP)
# Procedure, shortened: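 Sequencing of reverse-transcribed, amplified circular RNA barcodes from anti-FLAG and anti-Myc immunoprecipitates provided the readout for an ALFA-nanobody-fused binder library recombined into HEK293 landing-pad cells. Those cells were induced with 2 μg mL^−1 doxycycline, transfected with a plasmid expressing a FLAG-tagged target and a Myc-tagged standard, and lysed after 48 h. Target abundance is the per-binder median log2 ratio of FLAG to Myc barcode read proportions. Only barcodes at a proportion of ≥10^−7 in both replicates and binders with ≥3 barcodes per replicate were kept, with a 10^−6 pseudocount added before the two replicates were pooled.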
row,Binder,median log2 fold change
1,B1,0.209
2,B2,0.117
3,B3,0.291
4,B4,0.311
5,B5,-0.702
6,B6,0.161
7,B7,0.341
8,B8,0.167
9,B9,0.184
10,B10,0.368
11,B11,0.341
12,B12,0.264
13,B13,0.358
14,B14,0.14
15,B15,0.221
16,B16,0.56
17,B17,0.385
18,B18,-0.165
19,B19,0.323
20,B20,0.153
21,B21,0.302
22,B22,0.2
23,B23,0.0712
24,B24,0.164
25,B25,0.273
26,B26,-0.108
27,B27,0.0935
28,B28,-0.0516
29,B29,-0.177
